Biological target: T1, NMDA receptor subunit GluN1 (rat (endogenous in hippocampus), UniProt P35439)
T1 construct: NMDA receptor subunit GluN1, rat, endogenous in hippocampus; Detected by blot as a subunit of native NMDARs; source: endogenous, rat hippocampal homogenate (slices or cultured hippocampal neurons)
Assay: co-IP; total rat hippocampal lysates with primary antibody and Protein A/G agarose, 4°C; buffer pH 7.4, 0.05 mol/L HEPES, 0.15 mol/L NaCl, 0.5% NP-40, 1% Triton X-100; non-immune IgG as control; slices untreated or treated with PMA (0.5 umol/L, 10 min) and/or AIP (1 umol/L)
Conditions: partners not purified

B1: myosin Va (natural protein)
chain: not shown
notes: myosin Va, rat, endogenous in hippocampus; also called MyoVa; source: endogenous, rat hippocampal homogenate
co-IP signal with PMA, normalised to control (IP with anti-GluN1): 1.52 fold of control
